From the supplement of paper PMC11876631
± gives the standard deviation of the averaged measurements. Laboratory Escherichia coli strains with one amino-acid change in an essential protein, pooled on minimal glucose agar with carbenicillin or gentamicin at twice the control MIC (plus kanamycin and chloramphenicol for the plasmids), 48 h. Fold change of barcode share against drug-free plates; higher = less susceptible. Active = above 20 in both replicates (the paper's putatively resistant). '<' = one read or none on drug, '>' = one read or none on a drug-free plate. Shares are relative, so most strains fall below 1 when a few take over. Listed are strains with at least 15 reads on both drug-free plates, and hits; most hits rest on fewer reference reads. Replicate rank correlation about 0.5. Edits are read from barcodes.

B1: mreB M272A (protein)
chain: MLKKFRGMFSNDLSIDLGTANTLIYVKGQGIVLNEPSVVAIRQDRAGSPKSVAAVGHDAKQMLGRTPGNIAAIRPMKDGVIADFFVTEKMLQHFIKQVHSNSFMRPSPRVLVCVPVGATQVERRAIRESAQGAGAREVFLIEEPMAAAIGAGLPVSEATGSMVVDIGGGTTEVAVISLNGVVYSSSVRIGGDRFDEAIINYVRRNYGSLIGEATAERIKHEIGSAYPGDEVREIEVRGRNLAEGVPRGFTLNSNEILEALQEPLTGIVSAVAVALEQCPPELASDISERGMVLTGGGALLRNLDRLLMEETGIPVVVAEDPLTCVARGGGKALEMIDMHGGDLFSEE
B2: mreB M272W (protein)
chain: MLKKFRGMFSNDLSIDLGTANTLIYVKGQGIVLNEPSVVAIRQDRAGSPKSVAAVGHDAKQMLGRTPGNIAAIRPMKDGVIADFFVTEKMLQHFIKQVHSNSFMRPSPRVLVCVPVGATQVERRAIRESAQGAGAREVFLIEEPMAAAIGAGLPVSEATGSMVVDIGGGTTEVAVISLNGVVYSSSVRIGGDRFDEAIINYVRRNYGSLIGEATAERIKHEIGSAYPGDEVREIEVRGRNLAEGVPRGFTLNSNEILEALQEPLTGIVSAVWVALEQCPPELASDISERGMVLTGGGALLRNLDRLLMEETGIPVVVAEDPLTCVARGGGKALEMIDMHGGDLFSEE
B3: mreB M272Q (protein)
chain: MLKKFRGMFSNDLSIDLGTANTLIYVKGQGIVLNEPSVVAIRQDRAGSPKSVAAVGHDAKQMLGRTPGNIAAIRPMKDGVIADFFVTEKMLQHFIKQVHSNSFMRPSPRVLVCVPVGATQVERRAIRESAQGAGAREVFLIEEPMAAAIGAGLPVSEATGSMVVDIGGGTTEVAVISLNGVVYSSSVRIGGDRFDEAIINYVRRNYGSLIGEATAERIKHEIGSAYPGDEVREIEVRGRNLAEGVPRGFTLNSNEILEALQEPLTGIVSAVQVALEQCPPELASDISERGMVLTGGGALLRNLDRLLMEETGIPVVVAEDPLTCVARGGGKALEMIDMHGGDLFSEE
B4: mreC L17A (protein)
chain: MKPIFSRGPSLQIRLIAAVLVALGIIIADSRLGTFSQIRTYMDTAVSPFYFVSNAPRELLDGVSQTLASRDQLELENRALRQELLLKNSELLMLGQYKQENARLRELLGSPLRQDEQKMVTQVISTVNDPYSDQVVIDKGSVNGVYEGQPVISDKGVVGQVVAVAKLTSRVLLICDATHALPIQVLRNDIRVIAAGNGCTDDLQLEHLPANTDIRVGDVLVTSGLGGRFPEGYPVAVVSSVKLDTQRAYTVIQARPTAGLQRLRYLLLLWGADRNGANPMTPEEVHRVANERLMQMMPQVLPSPDAMGPKLPEPATGIAQPTPQQPATGNAATAPAAPTQPAANRSPQRATPPQSGAQPPARAPGGQ
B5: mreC V19W (protein)
chain: MKPIFSRGPSLQIRLILAWLVALGIIIADSRLGTFSQIRTYMDTAVSPFYFVSNAPRELLDGVSQTLASRDQLELENRALRQELLLKNSELLMLGQYKQENARLRELLGSPLRQDEQKMVTQVISTVNDPYSDQVVIDKGSVNGVYEGQPVISDKGVVGQVVAVAKLTSRVLLICDATHALPIQVLRNDIRVIAAGNGCTDDLQLEHLPANTDIRVGDVLVTSGLGGRFPEGYPVAVVSSVKLDTQRAYTVIQARPTAGLQRLRYLLLLWGADRNGANPMTPEEVHRVANERLMQMMPQVLPSPDAMGPKLPEPATGIAQPTPQQPATGNAATAPAAPTQPAANRSPQRATPPQSGAQPPARAPGGQ
B6: mreC L17P (protein)
chain: MKPIFSRGPSLQIRLIPAVLVALGIIIADSRLGTFSQIRTYMDTAVSPFYFVSNAPRELLDGVSQTLASRDQLELENRALRQELLLKNSELLMLGQYKQENARLRELLGSPLRQDEQKMVTQVISTVNDPYSDQVVIDKGSVNGVYEGQPVISDKGVVGQVVAVAKLTSRVLLICDATHALPIQVLRNDIRVIAAGNGCTDDLQLEHLPANTDIRVGDVLVTSGLGGRFPEGYPVAVVSSVKLDTQRAYTVIQARPTAGLQRLRYLLLLWGADRNGANPMTPEEVHRVANERLMQMMPQVLPSPDAMGPKLPEPATGIAQPTPQQPATGNAATAPAAPTQPAANRSPQRATPPQSGAQPPARAPGGQ
B7: mreC L17Q (protein)
chain: MKPIFSRGPSLQIRLIQAVLVALGIIIADSRLGTFSQIRTYMDTAVSPFYFVSNAPRELLDGVSQTLASRDQLELENRALRQELLLKNSELLMLGQYKQENARLRELLGSPLRQDEQKMVTQVISTVNDPYSDQVVIDKGSVNGVYEGQPVISDKGVVGQVVAVAKLTSRVLLICDATHALPIQVLRNDIRVIAAGNGCTDDLQLEHLPANTDIRVGDVLVTSGLGGRFPEGYPVAVVSSVKLDTQRAYTVIQARPTAGLQRLRYLLLLWGADRNGANPMTPEEVHRVANERLMQMMPQVLPSPDAMGPKLPEPATGIAQPTPQQPATGNAATAPAAPTQPAANRSPQRATPPQSGAQPPARAPGGQ
B8: mreC I26A (protein)
chain: MKPIFSRGPSLQIRLILAVLVALGIAIADSRLGTFSQIRTYMDTAVSPFYFVSNAPRELLDGVSQTLASRDQLELENRALRQELLLKNSELLMLGQYKQENARLRELLGSPLRQDEQKMVTQVISTVNDPYSDQVVIDKGSVNGVYEGQPVISDKGVVGQVVAVAKLTSRVLLICDATHALPIQVLRNDIRVIAAGNGCTDDLQLEHLPANTDIRVGDVLVTSGLGGRFPEGYPVAVVSSVKLDTQRAYTVIQARPTAGLQRLRYLLLLWGADRNGANPMTPEEVHRVANERLMQMMPQVLPSPDAMGPKLPEPATGIAQPTPQQPATGNAATAPAAPTQPAANRSPQRATPPQSGAQPPARAPGGQ
B9: mreC L17W (protein)
chain: MKPIFSRGPSLQIRLIWAVLVALGIIIADSRLGTFSQIRTYMDTAVSPFYFVSNAPRELLDGVSQTLASRDQLELENRALRQELLLKNSELLMLGQYKQENARLRELLGSPLRQDEQKMVTQVISTVNDPYSDQVVIDKGSVNGVYEGQPVISDKGVVGQVVAVAKLTSRVLLICDATHALPIQVLRNDIRVIAAGNGCTDDLQLEHLPANTDIRVGDVLVTSGLGGRFPEGYPVAVVSSVKLDTQRAYTVIQARPTAGLQRLRYLLLLWGADRNGANPMTPEEVHRVANERLMQMMPQVLPSPDAMGPKLPEPATGIAQPTPQQPATGNAATAPAAPTQPAANRSPQRATPPQSGAQPPARAPGGQ
B10: mreC L17D (protein)
chain: MKPIFSRGPSLQIRLIDAVLVALGIIIADSRLGTFSQIRTYMDTAVSPFYFVSNAPRELLDGVSQTLASRDQLELENRALRQELLLKNSELLMLGQYKQENARLRELLGSPLRQDEQKMVTQVISTVNDPYSDQVVIDKGSVNGVYEGQPVISDKGVVGQVVAVAKLTSRVLLICDATHALPIQVLRNDIRVIAAGNGCTDDLQLEHLPANTDIRVGDVLVTSGLGGRFPEGYPVAVVSSVKLDTQRAYTVIQARPTAGLQRLRYLLLLWGADRNGANPMTPEEVHRVANERLMQMMPQVLPSPDAMGPKLPEPATGIAQPTPQQPATGNAATAPAAPTQPAANRSPQRATPPQSGAQPPARAPGGQ
B11: mreC V19Q (protein)
chain: MKPIFSRGPSLQIRLILAQLVALGIIIADSRLGTFSQIRTYMDTAVSPFYFVSNAPRELLDGVSQTLASRDQLELENRALRQELLLKNSELLMLGQYKQENARLRELLGSPLRQDEQKMVTQVISTVNDPYSDQVVIDKGSVNGVYEGQPVISDKGVVGQVVAVAKLTSRVLLICDATHALPIQVLRNDIRVIAAGNGCTDDLQLEHLPANTDIRVGDVLVTSGLGGRFPEGYPVAVVSSVKLDTQRAYTVIQARPTAGLQRLRYLLLLWGADRNGANPMTPEEVHRVANERLMQMMPQVLPSPDAMGPKLPEPATGIAQPTPQQPATGNAATAPAAPTQPAANRSPQRATPPQSGAQPPARAPGGQ
B12: mreC V19A (protein)
chain: MKPIFSRGPSLQIRLILAALVALGIIIADSRLGTFSQIRTYMDTAVSPFYFVSNAPRELLDGVSQTLASRDQLELENRALRQELLLKNSELLMLGQYKQENARLRELLGSPLRQDEQKMVTQVISTVNDPYSDQVVIDKGSVNGVYEGQPVISDKGVVGQVVAVAKLTSRVLLICDATHALPIQVLRNDIRVIAAGNGCTDDLQLEHLPANTDIRVGDVLVTSGLGGRFPEGYPVAVVSSVKLDTQRAYTVIQARPTAGLQRLRYLLLLWGADRNGANPMTPEEVHRVANERLMQMMPQVLPSPDAMGPKLPEPATGIAQPTPQQPATGNAATAPAAPTQPAANRSPQRATPPQSGAQPPARAPGGQ
B13: mreC V19P (protein)
chain: MKPIFSRGPSLQIRLILAPLVALGIIIADSRLGTFSQIRTYMDTAVSPFYFVSNAPRELLDGVSQTLASRDQLELENRALRQELLLKNSELLMLGQYKQENARLRELLGSPLRQDEQKMVTQVISTVNDPYSDQVVIDKGSVNGVYEGQPVISDKGVVGQVVAVAKLTSRVLLICDATHALPIQVLRNDIRVIAAGNGCTDDLQLEHLPANTDIRVGDVLVTSGLGGRFPEGYPVAVVSSVKLDTQRAYTVIQARPTAGLQRLRYLLLLWGADRNGANPMTPEEVHRVANERLMQMMPQVLPSPDAMGPKLPEPATGIAQPTPQQPATGNAATAPAAPTQPAANRSPQRATPPQSGAQPPARAPGGQ

Target: Escherichia coli (laboratory strain)
Experiment: barcode share on antibiotic plates over drug-free plates; higher = less susceptible
Conditions: antibiotic: carbenicillin; 2× MIC (3.1 µg/mL)
Description: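 A pool of E. coli strains, each edited to carry one amino-acid change in an essential protein, was grown for 48 h on minimal glucose agar with or without antibiotic; strain barcodes were sequenced; mean of two replicates.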

Row | Protein | fold change of barcode share
1 | B1 | 0.377 ± 0.0082
2 | B2 | 0.178 ± 0.17
3 | B3 | 0.302 ± 0.061
4 | B4 | 0.534 ± 0.076
5 | B5 | 0.306 ± 0.16
6 | B6 | 0.379 ± 0.15
7 | B7 | 0.407 ± 0.019
8 | B8 | 0.14 ± 0.032
9 | B9 | 0.558 ± 0.15
10 | B10 | 0.0593 ± 0.00064
11 | B11 | 0.51 ± 0.078
12 | B12 | 0.346 ± 0.085
13 | B13 | 0.857 ± 0.52

Same assay, conditions: antibiotic: gentamicin; 2× MIC (MIC 0.45 µg/mL)

Row | Protein | fold change of barcode share
14 | B1 | 0.0984 ± 0.069
15 | B2 | < 0.0142
16 | B3 | 0.00622 ± 0.00063
17 | B4 | 0.0128 ± 0.01
18 | B5 | < 0.00649
19 | B6 | 0.007948 ± 1.1e-05
20 | B7 | 0.00774 ± 0.0068
21 | B8 | < 0.00752
22 | B9 | < 0.00342
23 | B10 | < 0.00645
24 | B11 | < 0.00458
25 | B12 | 0.00506 ± 0.0019
26 | B13 | 0.00552 ± 0.0032
